# Measured values taken from patent US20250213530A1 (GH RESEARCH IRELAND LIMITED, priority 2022, published 2025).
# System: patients with treatment-resistant major depressive disorder (TRD)
# Assay: Phase 1/2 clinical trial of inhaled 5-MeO-DMT, safety and tolerability
# Conditions: Part A, in both groups (12 mg and 18 mg)
compound,measurement,value
COc1ccc2[nH]cc(CCN(C)C)c2c1 [5-MeO-DMT],patients with at least one ADR,3 of 4
